# In publication PMC12136788:
# The list shows a part of the results.
# T1: UNK ZnF1-3 (human, UniProt Q9C0B0 31-174)
# T1 sequence: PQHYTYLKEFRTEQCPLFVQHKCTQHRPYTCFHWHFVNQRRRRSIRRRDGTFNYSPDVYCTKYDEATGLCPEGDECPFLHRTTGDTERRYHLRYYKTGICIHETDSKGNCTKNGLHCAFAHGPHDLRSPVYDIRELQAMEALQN
# B1: chr10:114798999:114799000:-_ENSMUSG00000069520_ENSMUST00000092170|mus_mus|FALSE|FALSE (ssRNA)
# RNA: GGGAGUUCUACAGUCCGACGAUCUCAUCUUUAUAUACCUUUUGCACGUAGUGUCGUCACUAUCUGUCAUGGAAAAUAGAGCUACGAGCACAUCUUCCACCAACCGAACGACAAAAUAGAAUCGUAAAUCCAAAACGUCUAGUCCAACAGAGGAUUGAGCAUCA
# B2: chr16:32084594:32084595:-_ENSMUSG00000023791_ENSMUST00000096109|perfect_dup|motif|central (ssRNA)
# RNA: GGGAGUUCUACAGUCCGACGAUCAGAAAACACUUAGCUGUACAAAACUUACAGGGAAAAGUGGCCAUAUUUGAAAACAGCGGAAAGGAUCAAAGUAGAACACAGAAUCGUAAUGAGCAGCGUCACAGAACACACUAAAGAGGUCAACAGAGGAUUGAGCAUCA
# B3: 53077001_53077121_1355_3pUTR_ENSMUSG00000026960_ENSMUST00000028336|mouse|control|control (ssRNA)
# RNA: GGGAGUUCUACAGUCCGACGAUCCUUUAAUUCUUUUUGAAGAGACAAAAUACUAAAGGACAGGUCUACACCAGCUAAGAAAUAAAAUUUACAGCCAUAUAGGUAUAAAUGUAAUCAUUUAAAACACAAAUGCAGUAUUAUAAACAACAGAGGAUUGAGCAUCA
# B4: chr7:91631701:91631702:+_ENSG00000127914_ENST00000356239|hu_mus|FALSE|FALSE (ssRNA)
# RNA: GGGAGUUCUACAGUCCGACGAUCUUCAUUUAGAUAAAGGCAUUGUUGUUGAAGGUCCUCGGUCUCCUUCCUCAGCAUCGCUACUUCUUUUUGCCACCUCGAGUCUGCCGACUUGCUUGUGCUGGGAUCUACGGCAAUGGAUCUCAACAGAGGAUUGAGCAUCA
# B5: 94353784_94353904_1773_3pUTR_ENSG00000023909_ENST00000370238|human|control|control (ssRNA)
# RNA: GGGAGUUCUACAGUCCGACGAUCACUAUGGAUGGAUCAAUAAUUUAAAAGAAUCUGGAUGGAGGUGACAGUAGUUGCUUUUAUAAAACCCCCAAACAAUAAUUUCAAAGCUUCUAGUCUCCUUUCAGAUUUACUUUGGUUUGUCAACAGAGGAUUGAGCAUCA
# B6: chr17:55916980:55916981:-_ENSG00000181610_ENST00000313608|hu_mus|FALSE|FALSE (ssRNA)
# RNA: GGGAGUUCUACAGUCCGACGAUCCAAAGCUGGUGCUUUCAAACCACAGUACUGAGAUUCAUAACAUCCCGAAAACAGGGACUAAGAGAAGGCACACGUGCCUGAGAGAUGGAGGCCAUCAGAGUCCAUCAGCUUGGGCCAGCGCAACAGAGGAUUGAGCAUCA
# Target: T1, UNK ZnF1-3
# Test: nsRBNS (natural sequence RNA bind-n-seq); RBNS binding buffer (assumed for nsRBNS): 25 mM Tris pH 7.5, 150 mM KCl, 3 mM MgCl2, 0.01% Triton X-100, 500 ug/ml BSA, 20 U/ml SUPERase-In, 4 C; UNK is unkempt and MSI1 is Musashi-1; names of the RNAs are library labels; protein concentration not given here; high values mean tight binding
row,Binder,binding signal
1,B1,0.661 enrichment R
2,B2,1.46 enrichment R
3,B3,0.797 enrichment R
4,B4,0.575 enrichment R
5,B5,1.09 enrichment R
6,B6,1.08 enrichment R
